# The RNAGym collection of RNA variant scans (doi:10.1073/pnas.2313332121)
# This sample is rich in variants without activity.
# B1: TPR 5TU (parent)
# chain: GGAUCUUCUCGAUCUAACAAAAAAGACAAAUCUGCCACAAAGCUUGAGAGCAUCUUCGGAUGCAGAGGCGGCAGCCUUCGGUGGCGCGAUAGCGCCAACGUUCUCAACUAUGACACGCAAAACGCGUGCUCCGUUGAAUGGAGUUUAUCAUG
# Variants of: B1
# Test: polymerase ribozyme fitness, log enrichment relative to wild type (log ratio); higher = more active; in vitro selection for triplet polymerase activity
# How it was run: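 Each subunit of a heterodimeric triplet polymerase ribozyme was represented by a PCR-built, transcribed mutant library that underwent triplicate single-round in vitro selection with frozen incubation at −7 °C. Extended constructs were recovered by gel excision, streptavidin-bead capture and RT-PCR, and Illumina sequencing of input and output libraries kept genotypes with ≥10 input reads and ≥1 read per output. Fitness is the logarithm of genotype enrichment relative to wild-type enrichment, from inverse-variance-weighted replicate averages, with a logarithm base of 2.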
row,Variant,polymerase ribozyme fitness (log ratio)
1,C54U G86A G94C A98G A142G,≤ -4.2
2,G58C U77G C114A A115G G136U A147U,≤ -4.2
3,U55A G59C C63A G86A A91G C95U A137G G152A,≤ -4.2
4,C57U A66C G71A G94U,≤ -4.2
5,U56G A91C C108U C149U,≤ -4.2
6,C54A A91C,≤ -4.2
7,U55G G68A G80A G88A,≤ -4.2
8,U55A A73C C87A G141A,≤ -4.2
9,U53A U139C,≤ -4.2
10,G58A G71A G92C G143A,≤ -4.2
11,U55A G84C U90C A107U C123G,≤ -4.2
12,C54U G67C G70C A97C U109A C116U A137U U144A U145G,≤ -4.2
13,C54U C72G A91G G94A G128U G152A,≤ -4.2
14,U53G G80C C95G,≤ -4.2
15,G59A C87A G126A,≤ -4.2
16,U53A U77G C85G,≤ -4.2
17,U53A U56G C85U U90C,≤ -4.2
18,U56G C85U A137U A150C,≤ -4.2
19,C54A G68A G80A G83U C93G C114A G140C G141C U145A,≤ -4.2
20,C57G A60U C93U G124C A137U,≤ -4.2
21,U56A G88U A107G G136A,≤ -4.2
22,C54U G68C U77C G83C,≤ -4.2
23,U56A U82A C93A U111C C114U,≤ -4.2
24,U56A G88C C95U U139G,≤ -4.2

row,Variant,polymerase ribozyme fitness (log ratio)
1,U55A C79U G84A C108G G124A,≤ -4.2
2,U56A G92U C103G G140C,≤ -4.2
3,U53A G86U C99G C105G U109C C118U U134A,≤ -4.2
4,U56G C85A G86U U134A,≤ -4.2
5,U53A C76A C87G C125G,≤ -4.2
6,C54U G70C C79A G84U A89U U102A G140A G143U,≤ -4.2
7,U56A C87A A113U,≤ -4.2
8,C57U G59C C75A C85U,≤ -4.2
9,U53A G86A U90G A107C G133U U151G,≤ -4.2
10,C54U C75G G80C C87G C125U,≤ -4.2
11,G59A C72U C103G A115U C118G A122U G141U A142C,≤ -4.2
12,C54U G59A U78A C79A C87A U134A,≤ -4.2
13,U53A C69A G83A A91G U101C G124U,≤ -4.2
14,C54G G70U U77G G84U C132U,≤ -4.2
15,U55A C108G A115G A120G C131U,≤ -4.2
16,G58A C85U C108A A120C U151C,≤ -4.2
17,U53A U55C G81A C85U G94C C96U G100A U134C,≤ -4.2
18,U55A G94C C96G,≤ -4.2
19,C54A G88U U146C,≤ -4.2
20,U56A C75G U104C C114G A115G,≤ -4.2
21,C57G U61C G62C A66G G83U C95U,≤ -4.2
22,C54A G58A C69A G71A A97G C103G,≤ -4.2
23,C54U G84A G124U A137C,≤ -4.2
24,C54G U56G C96U C132A,≤ -4.2

row,Variant,polymerase ribozyme fitness (log ratio)
1,U53G A89U C96U G143C,≤ -4.2
2,C54U G88U,≤ -4.2
3,C54G U55C C76A G92U U102A A137U U148A,≤ -4.2
4,C57G G68A C85U U146C,≤ -4.2
5,C57G C103G G124A A147G,≤ -4.2
6,C54U G86U C96G A110U A113U,≤ -4.2
7,U55A C69A C96U U102G,≤ -4.2
8,C54U G83U C95G C108A A150U,≤ -4.2
9,G58C G62C A91C A106C,≤ -4.2
10,C57G U61A G83C G88U,≤ -4.2
11,C57G C93A G128U,≤ -4.2
12,C54U G58A A89U C93U G100A G117C G124A,≤ -4.2
13,U55C G84U A106U G143C,≤ -4.2
14,G59A C108G C149G,≤ -4.2
15,G58C G67C G71U C87G,≤ -4.2
16,U53G G67U C93A C108U A115U A142C U144C C149U,≤ -4.2
17,C57U U90G,≤ -4.2
18,U55G C93U A137U,≤ -4.2
19,U56G C85A G88U G100U C105G C118G,≤ -4.2
20,U55A G70U G80C G84A U101C A106U,≤ -4.2
21,U56C G58A G128U U135C,≤ -4.2
22,C57U C96G G136U A137U U146C,≤ -4.2
23,C54A G92C C95A C125G U145G,≤ -4.2
24,C54U G65C A121G A147C,≤ -4.2

row,Variant,polymerase ribozyme fitness (log ratio)
1,U56A G136U U148A,≤ -4.2
2,U53A U61C G84C C85U C87G G117A A119C G141A,≤ -4.2
3,G59A C63G G68C C85U A119C C131G G141C,≤ -4.2
4,C57G C96A U111G U127C G143C,≤ -4.2
5,U55G C87A G124U,≤ -4.2
6,G58A C72A C87A U104C,≤ -4.2
7,C57A A89C U139A,≤ -4.2
8,G58C G68A C95A,≤ -4.2
9,G59A A73G C96U A107U U144G,≤ -4.2
10,U55G A60U G84U C95U C96A A97C G126U U127A C149A,≤ -4.2
11,U56A C69U C129G U144G C149A,≤ -4.2
12,U55A C76G U77G U90A G133U G136U,≤ -4.2
13,G58A C103G C105U U151G,≤ -4.2
14,C54G C57U G86A C99U C105G U139A,≤ -4.2
15,U55A G94U U145C C149G,≤ -4.2
16,G58A C85A G133A G143C U151A,≤ -4.2
17,C54U C85U U101G G140A,≤ -4.2
18,C54G C87G C132U C149U,≤ -4.2
19,U55G C87A G92A C96U G126A,≤ -4.2
20,U55A C75A G88C G133U,≤ -4.2
21,G58C U90C C99A,≤ -4.2
22,U55A A66G C93A A119G A121U,≤ -4.2
23,U56A C63U C87G A89U,≤ -4.2
24,G58U C87A A106C C118A,≤ -4.2

row,Variant,polymerase ribozyme fitness (log ratio)
1,G58A C75U G83U C95A C131A,≤ -4.2
2,U53C G68C A73G C85G G88C A137C G140C,≤ -4.2
3,C57A G80A G84U G94A C95A C99U C114U G143A,≤ -4.2
4,G58C U90G,≤ -4.2
5,G58A G68U A91U A107G A115G U146G,≤ -4.2
6,C57A G59A U61A C87A U135A,≤ -4.2
7,C54A C108A C132U U144G,≤ -4.2
8,U55A A97U U102G,≤ -4.2
9,G59A C79G G86C U151G,≤ -4.2
10,C57G U61A G86C A137G,≤ -4.2
11,U53A G70C U77G,≤ -4.2
12,G59A A60G G88C,≤ -4.2
13,U56G C132U U151G,≤ -4.2
14,U55A A66U G81C C96U G117A C118A A119G,≤ -4.2
15,C54A G88C C103U C129A G141C,≤ -4.2
16,U55A C85A A97U A107U,≤ -4.2
17,C54U G62U A66G C69G C76U C131G U146G,≤ -4.2
18,U53A G70C G86C A122U C125U,≤ -4.2
19,C54G G59A A73G G83C A98U U148C,≤ -4.2
20,U55A G62C U127A,≤ -4.2
21,C57U C76U C85A G126C G133U,≤ -4.2
22,C57G C79G G84U,≤ -4.2
23,U56A A66C G94A A98U,≤ -4.2
24,G58C G70C G92C C114G C116U,≤ -4.2

row,Variant,polymerase ribozyme fitness (log ratio)
1,C57A C79A A91U,≤ -4.2
2,U53A G59C U77G U90G A119G,≤ -4.2
3,G59A C63A A73G G83A A91C U146A,≤ -4.2
4,U56A U78G G94A U146C,≤ -4.2
5,G58C G71A C99G A137G,≤ -4.2
6,G58C A91U C95U C129A,≤ -4.2
7,G58A G62C C87G C93G C96U C123A A142C,≤ -4.2
8,G58C G81A A89U C96A A107C U148C,≤ -4.2
9,C57A U82A A89G C96U A107G U134A,≤ -4.2
10,C57U G88U U102C A107G G136U,≤ -4.2
11,G59A G67U G92A,≤ -4.2
12,U55G G94A U135C U139A,≤ -4.2
13,C54A G88C U139A U148C,≤ -4.2
14,U53A C93G A115U,≤ -4.2
15,G58A G62A C85G A122G C125A G133A G143A,≤ -4.2
16,U56A G84U C93A C118U G141A,≤ -4.2
17,C54G C69G G84C A107U,≤ -4.2
18,G58A C99G U111G,≤ -4.2
19,C54A G68U C85A U130A,≤ -4.2
20,C57G U77A G92U C105A C108G C132A A147C,≤ -4.2
21,C57U C108A,≤ -4.2
22,U56A C79U G83U C87A A106U,≤ -4.2
23,G58A G65C C85U C114A C149U,≤ -4.2
24,C57A G74A A91U G100C U101A C118A,≤ -4.2

row,Variant,polymerase ribozyme fitness (log ratio)
1,U55A U56A U61C A119U U148C,≤ -4.2
2,C54U G67C G84C C85G A106U U146G,≤ -4.2
3,C57G G84U C96A A97U C105G A107U G143C,≤ -4.2
4,U55G C63A A73G G83A C108G A113U,≤ -4.2
5,G58C C76U U102G A138C,≤ -4.2
6,U53A C69U G140A,≤ -4.2
7,C54G C75U C85A A106U G117C G141A,≤ -4.2
8,C57U G81A G84A C85G C93G C123U G133U A147C U151G G152C,≤ -4.2
9,U55A C76U C79U C93G C103A A142G,≤ -4.2
10,U56A G83A C85U A91G C95U C99A U144G,≤ -4.2
11,U55A U90C C95A,≤ -4.2
12,U53G C87A G94U A106U A122G A137U,≤ -4.2
13,C54G C76A A97U A138C,≤ -4.2
14,C54U U61A C95U A97C A137C,≤ -4.2
15,C54A U55A U77G G83U C149G,≤ -4.2
16,U53A U111G,≤ -4.2
17,U55G G81U A89U C93A A106G,≤ -4.2
18,C57A U82A C125A G141C U148C,≤ -4.2
19,U55A G68A A115C A137C,≤ -4.2
20,U53G G68A A91U A150C,≤ -4.2
21,C57A A64C G70U C108G,≤ -4.2
22,C54U U77A G83A U145G,≤ -4.2
23,G58U U109C C116U,≤ -4.2
